Experimental data reported in PubChem BioAssay AID328 (DTP/NCI, 2004).
Values joined by “and” are separate entries in the source; they are usually repeats but may differ in a detail not shown here. Equal entries are not always repeated. This continues a long series; more values of the same kind are listed elsewhere. Toxic doses and inconclusive results are not listed. How the source made its calls: active means survival T/C of 150% or more; inactive means T/C below 125% in these data. Starred links: 1 amine or outer side, 2 acyl side, 3 side chain; linkers in the order of their positions; H or OH if unused. Positions of bridges follow the written chain, without caps; N, C: chain ends. Non-standard residues stand in square brackets, D forms with d. Residues, ends and D or L forms follow the SMILES beside them. Chains are numbered I, II in the order given. Actinocin(9to1) = Cc1c2oc3c(C)ccc(C(=O)[*:1])c3nc-2c(C(=O)[*:2])c(N)c1=O; aThr = C[C@H](O)[C@H](N)C(=O)O; NMeV = CN[C@H](C(=O)O)C(C)C; Sar = CNCC(=O)O

Tested on: BDF1 mice, P388 leukemia ip, median survival T/C
Test: NCI In Vivo Anticancer Drug Screen. Data for tumor model P388 Leukemia (intraperitoneal) in B6D2F1 (BDF1) mice
Conditions: endpoint: median survival time, higher = longer survival
Experimental: The antitumor activity of compounds was measured in mice bearing transplantable tumors. Survival or tumor size were measured and the results are expressed as the measurement made in the treated group (T) divided by the measurement made in the vehicle treated control group (C). The tumor model used in this assay is P388 Leukemia (intraperitoneal) in B6D2F1 (BDF1) mice

Measured: T/C

COC(=O)[C@@]12OC[C@]34[C@H]([C@@H](O)[C@@H]1O)[C@@]1(C)CC(=O)C(O)=C(C)[C@@H]1C[C@H]3OC(=O)[C@H](OC(=O)/C=C(\C)C(C)C)[C@@H]24
active: dose: 0.25 mg/kg/injection, schedule: Q01DX009 (ip), vehicle: saline with Tween-80 = 201 % of control | dose: 0.25 mg/kg/injection, schedule: Q01DX009 (ip), vehicle: saline 195 % of control | dose: 0.5 mg/kg/injection, schedule: Q01DX009 (ip), vehicle: saline with Tween-80 = 191 % of control | dose: 0.5 mg/kg/injection, schedule: Q01DX009 (ip), vehicle: saline 195 % of control | dose: 0.8 mg/kg/injection, schedule: Q01DX009 (ip), vehicle: saline + alcohol 199 % of control | dose: 1.0 mg/kg/injection, schedule: Q01DX009 (ip), vehicle: other 194 % of control | dose: 1.0 mg/kg/injection, schedule: Q01DX009 (ip), vehicle: saline with Tween-80 = 203 % of control and 204 % of control and 213 % of control | dose: 1.0 mg/kg/injection, schedule: Q01DX009 (ip), vehicle: saline 205 % of control | dose: 1.6 mg/kg/injection, schedule: Q01DX009 (ip), vehicle: saline + alcohol 205 % of control | dose: 2.0 mg/kg/injection, schedule: Q01DX009 (ip), vehicle: saline 195 % of control | dose: 266.0 micrograms/kg/injection, schedule: Q01DX009 (ip), vehicle: saline + alcohol 200 % of control | dose: 600.0 micrograms/kg/injection, schedule: Q01DX009 (ip), vehicle: saline + alcohol 215 % of control | dose: 720.0 micrograms/kg/injection, schedule: Q01DX009 (ip), vehicle: saline + alcohol 193 % of control | dose: 1200.0 micrograms/kg/injection, schedule: Q01DX009 (ip), vehicle: saline + alcohol 205 % of control

Cc1c2oc3c(C)ccc(C(=O)N[C@@H]4C(=O)N[C@H](C(C)C)C(=O)N5CCC[C@H]5C(=O)N(C)CC(=O)N(C)[C@@H](C(C)C)C(=O)O[C@H]4C)c3nc-2c(C(=O)N[C@@H]2C(=O)N[C@H](C(C)C)C(=O)N3CCC[C@H]3C(=O)N(C)CC(=O)N(C)[C@@H](C(C)C)C(=O)O[C@H]2C)c(N)c1=O (I: [aThr][dV]P[Sar][NMeV] / II: [aThr][dV]P[Sar][NMeV]; ester I:1-I:C, II:1-II:C; linker I:N-II:N via Actinocin(9to1))
active: dose: 0.15 mg/kg/injection, schedule: Q04DX003 (ip), vehicle: saline 222 % of control | dose: 0.2 mg/kg/injection, schedule: Q01DX001 (ip), vehicle: saline 204 % of control and 216 % of control | dose: 0.2 mg/kg/injection, schedule: Q04DX003 (ip), vehicle: saline 209 % of control | dose: 0.25 mg/kg/injection, schedule: Q04DX003 (ip), vehicle: saline + alcohol 212 % of control | dose: 0.25 mg/kg/injection, schedule: Q04DX003 (ip), vehicle: saline 203 % of control and 218 % of control | dose: 0.28 mg/kg/injection, schedule: Q01DX001 (ip), vehicle: saline 206 % of control | dose: 0.6 mg/kg/injection, schedule: Q01DX001 (ip), vehicle: saline 200 % of control | dose: 6.2 micrograms/kg/injection, schedule: Q01DX010 (ip), vehicle: saline 200 % of control | dose: 12.0 micrograms/kg/injection, schedule: Q01DX010 (ip), vehicle: saline 220 % of control | dose: 12.5 micrograms/kg/injection, schedule: Q01DX009 (ip), vehicle: saline + alcohol 218 % of control | dose: 12.5 micrograms/kg/injection, schedule: Q01DX009 (ip), vehicle: saline 205 % of control | dose: 12.5 micrograms/kg/injection, schedule: Q01DX010 (ip), vehicle: other 218 % of control | dose: 15.0 micrograms/kg/injection, schedule: Q03HX024 (ip), vehicle: saline 213 % of control | dose: 20.0 micrograms/kg/injection, schedule: Q03HX024 (ip), vehicle: saline 218 % of control | dose: 21.6 micrograms/kg/injection, schedule: Q01DX009 (ip), vehicle: saline + alcohol 205 % of control | dose: 25.0 micrograms/kg/injection, schedule: Q01DX009 (ip), vehicle: saline + alcohol 206 % of control | dose: 25.0 micrograms/kg/injection, schedule: Q01DX009 (ip), vehicle: water 221 % of control | dose: 25.0 micrograms/kg/injection, schedule: Q01DX010 (ip), vehicle: other 218 % of control | dose: 25.0 micrograms/kg/injection, schedule: Q01DX010 (ip), vehicle: saline 210 % of control | dose: 150.0 micrograms/kg/injection, schedule: Q04DX003 (ip), vehicle: water 206 % of control | dose: 200.0 micrograms/kg/injection, schedule: Q04DX003 (ip), vehicle: saline 213 % of control | dose: 300.0 micrograms/kg/injection, schedule: Q04DX003 (ip), vehicle: saline 205 % of control
